Where “and” joins values, the source holds several entries; their conditions need not be identical. Equal entries are not always repeated.
Key:
TMPRSS2-HiBiT = TMPRSS2-HiBiT (Homo sapiens, UniProt O15393); assay: Cell-based proline treatment, TMPRSS2-HiBiT signal in Beas-2B cells; conditions: replicates, listed as HFG
TMPRSS2 = conditions: Caco-2, HFG 3 µM, carfilzomib 1 µM

TMPRSS2-HiBiT, sequence (O15393 whole entry): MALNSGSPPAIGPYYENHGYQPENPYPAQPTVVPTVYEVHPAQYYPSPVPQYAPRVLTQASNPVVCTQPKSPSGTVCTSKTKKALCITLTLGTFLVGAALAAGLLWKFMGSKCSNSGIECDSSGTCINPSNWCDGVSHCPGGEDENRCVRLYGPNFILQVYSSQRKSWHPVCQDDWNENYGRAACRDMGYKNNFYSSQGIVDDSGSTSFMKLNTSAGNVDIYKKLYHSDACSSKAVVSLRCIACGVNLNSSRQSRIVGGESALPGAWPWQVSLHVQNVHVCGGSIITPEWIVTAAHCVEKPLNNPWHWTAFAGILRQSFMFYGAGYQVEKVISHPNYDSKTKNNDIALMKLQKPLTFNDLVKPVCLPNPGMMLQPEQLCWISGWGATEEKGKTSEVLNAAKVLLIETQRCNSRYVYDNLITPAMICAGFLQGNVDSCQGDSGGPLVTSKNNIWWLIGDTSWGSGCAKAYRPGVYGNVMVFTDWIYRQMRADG

O=C(CC1NCCCC1O)Cn1cnc2cc(Br)c(Cl)cc2c1=O (stereo not shown) [Halofuginone]
TMPRSS2-HiBiT signal (raw values) (TMPRSS2-HiBiT; HFG 4e-9 M, No Proline): 442390 and 513361 and 438451
TMPRSS2-HiBiT signal (raw values) (TMPRSS2-HiBiT; HFG 1.235e-8 M, 1mM Proline): 520631 and 433215 and 519995
TMPRSS2-HiBiT signal (raw values) (TMPRSS2-HiBiT; HFG 1.235e-8 M, No Proline): 507005 and 340476 and 451268
TMPRSS2-HiBiT signal (raw values) (TMPRSS2-HiBiT; HFG 3.704e-8 M, 1mM Proline): 434217 and 395431 and 483610
TMPRSS2-HiBiT signal (raw values) (TMPRSS2-HiBiT; HFG 3.704e-8 M, No Proline): 603827 and 463851 and 425233
TMPRSS2-HiBiT signal (raw values) (TMPRSS2-HiBiT; HFG 1.111e-7 M, 1mM Proline): 370404 and 553480 and 490249
TMPRSS2-HiBiT signal (raw values) (TMPRSS2-HiBiT; HFG 3.333e-7 M, 1mM Proline): 362092 and 264512 and 406364
TMPRSS2-HiBiT signal (raw values) (TMPRSS2-HiBiT; HFG 3.333e-7 M, No Proline): 2402 and 2183 and 3253
TMPRSS2-HiBiT signal (raw values) (TMPRSS2-HiBiT; HFG 1e-6 M, 1mM Proline): 18412 and 14790 and 25079
TMPRSS2-HiBiT signal (raw values) (TMPRSS2-HiBiT; HFG 1e-6 M, No Proline): 2348 and 2151 and 2195
TMPRSS2-HiBiT signal (raw values) (TMPRSS2-HiBiT; HFG 3e-6 M, 1mM Proline): 2822 and 2705 and 2441
TMPRSS2-HiBiT signal (raw values) (TMPRSS2-HiBiT; HFG 3e-6 M, No Proline): 2889 and 2914 and 2345
effect of halofuginone on TMPRSS2 protein levels in the presence of carfilzomib (TMPRSS2): largely abrogated
